SMILES strings stand for the structures. The list shows a part of the results.

For this assay, the system named is HepG2. In words: cytotoxicity call (relative viability < 0.9). Particulars: 10 µM.
As for `NC(=O)c1ncn(C2OC(CO)C(O)C2O)c1N` (centres undefined), the cytotoxicity call is “inactive”.
The value for `COCC#Cc1ccc([C@H]2[C@@H](CO)N3C(=O)CN(C(=O)CN4CCOCC4)C[C@H]23)cc1` was “inactive”; that for `c1cn2c3c(n1)CCCc3c1cc(C3CCCCC3)ccc12` was “inactive”; that for `Cc1nc[nH]c1CN(C)[C@H](C)C(=O)N(C)C` was “inactive”.
Consider `Nc1ncnc(NCCN2CCOCC2)c1[N+](=O)[O-]`, for which the cytotoxicity call was “inactive”.
With `C[C@H](CO)N1C[C@H](C)[C@H](CN(C)S(=O)(=O)c2cn(C)cn2)Oc2c(NS(=O)(=O)c3ccc(Cl)cc3)cccc2C1=O` the entry was “inactive”; with `CC(C)NC(=O)N(C)C[C@H]1Oc2ccc(NC(=O)NC3CCCCC3)cc2C(=O)N([C@H](C)CO)C[C@@H]1C`, “inactive”; with `CCN(CC)c1ccnc([C@H]2COCCN2)n1`, “inactive”.
With `CCCCCCCCNC(C)C(O)c1ccc(SC(C)C)cc1` (centres undefined), the cytotoxicity call was “active”.
For the molecule `C[C@H](CO)N1C[C@H](C)[C@@H](CN(C)S(=O)(=O)c2ccccc2)Oc2ccc(NS(=O)(=O)c3cn(C)cn3)cc2CC1=O`, the cytotoxicity call was “inactive”.
With `Cc1ccc(S(=O)(=O)Nc2ccc3c(c2)C(=O)N([C@H](C)CO)C[C@H](C)[C@H](CN(C)Cc2ccccc2)OCCCC[C@@H](C)O3)cc1` the entry was “inactive”; with `Cc1noc(C)c1NC(=O)Nc1cccc2c1O[C@H](CN(C)C(=O)Nc1cccc3ccccc13)[C@@H](C)CN([C@H](C)CO)C2=O`, “inactive”.
Take `CC(C)c1c(C(=O)c2ccccc2)c(-c2ccccc2)c(-c2ccc(F)cc2)n1CC[C@@H](O)C[C@@H](O)CC(=O)O`: the cytotoxicity call is “inactive”.
Turning to `C[C@H]1CN([C@@H](C)CO)C(=O)c2cc(NS(C)(=O)=O)ccc2O[C@H]1CN(C)S(=O)(=O)c1ccc(F)cc1`, the cytotoxicity call was “inactive”.
`C[C@H]1CN([C@@H](C)CO)C(=O)Cc2cc(NS(=O)(=O)c3cn(C)cn3)ccc2O[C@H]1CN(C)S(=O)(=O)c1ccc(F)cc1`: the cytotoxicity call was “inactive”.
In the case of `CC(C)C#Cc1cnc2c(c1)C(=O)N([C@H](C)CO)C[C@H](C)[C@@H](CN(C)S(=O)(=O)c1cn(C)cn1)O2`, the cytotoxicity call was “inactive”.
On to `CN1CCC(CO)CC1`, for which the cytotoxicity call was “inactive”.
The value for `O=C(C[C@@H]1C=C[C@H](NS(=O)(=O)c2ccc(F)cc2)[C@H](CO)O1)NCc1ccc(Cl)c(Cl)c1` was “inactive”; that for `CCCNC(=O)N[C@H]1C=C[C@H](CC(=O)N2CCN(C)CC2)O[C@H]1CO` was “inactive”; that for `CN1CCN(C(=O)C[C@H]2CC[C@@H](NC(=O)Cc3ccccn3)[C@@H](CO)O2)CC1` was “inactive”.
The value for `C[C@@H]1CN([C@@H](C)CO)C(=O)c2cc(NS(=O)(=O)c3cccs3)ccc2O[C@@H](C)CCCCO[C@@H]1CN(C)C(=O)c1ccccc1` was “inactive”.
With `C[C@@H]1CCCCO[C@H](CN(C)C(=O)NC2CCCCC2)[C@@H](C)CN([C@@H](C)CO)C(=O)c2cc(NC(=O)Nc3ccc(C(F)(F)F)cc3)ccc2O1` the entry was “inactive”; with `C[C@H]1CN([C@@H](C)CO)C(=O)Cc2cc(NS(=O)(=O)c3cccs3)ccc2O[C@@H]1CN(C)CC1CC1`, “inactive”; with `O=C(CN1CCNCC1)NC1CCCCC1`, “inactive”.
Take `C[C@@H]1COS(=O)(=O)N1`: the cytotoxicity call was “inactive”.
For `Cc1noc(C)c1S(=O)(=O)Nc1ccc2c(c1)CC(=O)N([C@@H](C)CO)C[C@H](C)[C@H](CN(C)S(C)(=O)=O)O2`, the cytotoxicity call was “inactive”.
Take `C[C@H](CO)N1C[C@H](C)[C@H](CN(C)S(=O)(=O)c2cn(C)cn2)Oc2ccc(NS(C)(=O)=O)cc2CC1=O`: the cytotoxicity call is “inactive”.
The value for `O=C1CCC(C(=O)O)N1` (centres undefined) was “inactive”; that for `C[C@@H]1CCCCO[C@@H](CN(C)S(=O)(=O)c2ccc(Cl)cc2)[C@H](C)CN([C@@H](C)CO)C(=O)c2cc(NC(=O)Nc3ccc(C(F)(F)F)cc3)ccc2O1` was “inactive”.

Values taken from the antibiotic and cytotoxicity screens of Wong et al. (2023).
